Series [1] has as its system mouse colorectal cancer cell line CT26.WT. As to the kind of experiment: In vivo drug efficacy, CT26.WT-transplanted mice, intratumoral administration. To be noted: BALB/c mice, FIG. 8. The protocol: 1×10^6 mouse colorectal cancer cell line CT26.WT cells (ATCC) were subcutaneously transplanted into the right abdomen of BALB/c mice (Japan Charles River) to establish solid tumor. Ten days after the transplantation, hUH02hUL01-mFa55 was administered at a dose of 200 μg/mouse and hUH02UL01/2C11-F760 was administered at a dose of 100 μg/mouse, intratumorally (i.t.) (n=2 for each group).

The test system is the same in series [2]. As to the kind of experiment: In vivo drug efficacy, CT26.WT-transplanted mice, intratumoral versus intravenous administration. The conditions noted are these: BALB/c mice, 100 μg/mouse i.t. or i.v., eight days after transplantation; FIG. 9. The protocol: 1×10^6 CT26.WT cells (ATCC) were subcutaneously transplanted into the right abdomen of BALB/c mice (Japan Charles River) to establish solid tumor. Eight days after the transplantation, hUH02UL01/2C11-F760 was administered at a dose of 100 μg/mouse intratumorally (i.t.) or intravenously (i.v.) (n=5 for each group).

In a further series the target is T1, mouse CD3 (Mus musculus, UniProt P22646).
T1 sequence (P22646 22-108 limits assumed): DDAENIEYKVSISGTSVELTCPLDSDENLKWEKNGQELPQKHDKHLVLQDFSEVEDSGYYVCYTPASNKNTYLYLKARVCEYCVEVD
The series can be described thus: Biacore T200 antigen binding of bispecific antibody. The conditions noted are these: analyte mouse CD3, 37° C., HBS-EP+ pH7.4. The protocol: (§1) Anti-mouse CTLA4/anti-mouse CD3 bispecific antibodies (hUH02UL01/2C11-F760) purified and prepared by the method of Reference Example 3-1 were analyzed for their antigen-antibody reactions with each antigen (mCTLA4 and mCD3) using Biacore™ T200 (GE Healthcare). The running buffer used was HBS-EP+ at pH7.4, and measurements were taken at 37° C. Protein A/G was immobilized onto a Sensor Chip CM4 by amine coupling. hUH02UL01/2C11-F760 was captured onto the sensor chip, and then the antigen (mouse CTLA4 or mouse CD3) was allowed to interact as an analyte (for 120 seconds for mouse CTLA4 and for 90 seconds for mouse CD3), and changes in the bound amount were observed. The running buffer was used for dilution of hUH02UL01/2C11-F760. The measurement results were analyzed by curve fitting using the Biacore™ T200 Evaluation Software (GE Healthcare) to calculate the association rate constants ka (l/Ms) and the dissociation rate constants kd (l/s). From those values, the dissociation constants KD (M) were determined.

The target of a further series is mouse CTLA4 (Mus musculus, UniProt P09793). Described as above. To be noted: analyte mouse CTLA4, 37° C., HBS-EP+ pH7.4. As to the method:
as §1

Series [3] deals with mouse CTLA4-expressing cell lines (CHO/mCTLA4). As to the kind of experiment: Cytotoxic activity (cell proliferation inhibition, xCELLigence) with mouse splenocytes as effector cells. To be noted: antibody 0.04, 0.4, 4, 40 μg/ml, 72 hours, FIG. 6. It counts as cell-based. As to the method:
Whether anti-mouse CTLA4/anti-mouse CD3 bispecific antibody (hUH02UL01/2C11-F760) purified and prepared by the method of Reference Example 3-1 exerts cytotoxic activity on mouse CTLA4-expressing cell lines was examined according to the method of Reference Example 12.
Regarding the anti-mouse CTLA4/anti-mouse CD3 bispecific antibody (hUH02UL01/2C11-F760), antibody concentration-dependent cytotoxic activity of the test antibody was measured using mouse splenocytes as effector cells, and by following the method described below.
Ten mL of 10% FBS/RPMI was added to the spleen excised from a BALB/c mouse. The spleen was sliced into small pieces and passed through a cell strainer. After centrifugation (at 2,150 rpm for ten minutes at room temperature), a hemolysis procedure was performed using a Mouse Erythrocyte Lysing Kit (R&D Systems). After washing once with 10% FBS/RPMI, the cells were suspended in 10% FBS/RPMI at a cell density of 6×10^6 cells/ml. The cell suspension was used as the mouse splenocyte solution in the subsequent experiments.
Cytotoxic activity was evaluated by cell proliferation inhibition rate using the xCELLigence® Real-Time Cell Analyzer (Roche Diagnostics K.K.). CHO/mCTLA4 which is CHO forced to express mouse CTLA4 was used as the target cells. […]

Series [4] addresses T2, mouse CTLA4/mouse CD3-bound beads and mouse CD3-bound beads (Mus musculus, UniProt P09793+P22646).
T2 construct: biotin (biotinylated); biotin (on the donor-bead portion only)
The series can be described thus: AlphaScreen crosslinking between mouse CTLA4/mouse CD3-bound beads and mouse CD3-bound beads. It counts as binding. The conditions noted are these: 100 nmol/L antibody; donor beads with biotinylated mouse CTLA4 and mouse CD3, mouse CD3-acceptor beads; FIG. 7-3. The protocol: Next, 100 nmol/L of biotinylated mouse CTLA4 and 10 nmol/L of biotinylated mouse CD3 were added to AlphaScreen™ Streptavidin-coated Donor Beads (PerkinElmer) to produce donor beads that mimic regulatory T cells expressing CTLA4 and CD3. Whether addition of 100 nmol/L of hUH02UL01/2C11-F760 can cause crosslinking between donor beads and acceptor beads in the presence of 50 μg/mL mouse CD3-acceptor beads (acceptor beads mimicking effector T cells) was examined. The condition in which hUH02UL01/2C11-F760 is not added to 100 nmol/L of biotinylated mouse CTLA4; 50 μg/mL of AlphaScreen™ Streptavidin-coated Donor Beads (PerkinElmer); and 50 μg/mL of mouse CD3-acceptor beads was used as the control in which crosslinking between each of the beads are not caused. All experiments were performed three times.

The target of series [5] is T3, mouse CTLA4-bound beads and mouse CD3-bound beads (Mus musculus, UniProt P09793+P22646).
T3 construct: biotin (biotinylated)
The series can be described thus: AlphaScreen crosslinking between mouse CTLA4-bound beads and mouse CD3-bound beads. It counts as binding. To be noted: 0, 20, 100, 500 nmol/L antibody; biotinylated mouse CTLA4 donor beads, mouse CD3-acceptor beads; FIG. 7-2. The protocol:
First, the present inventors investigated, using Alpha technology from Perkin Elmer Inc., construction of a system that can evaluate crosslinking between mouse CD3-immobilized beads and mouse CTLA4-immobilized beads using the anti-mouse CTLA4/anti-mouse CD3 bispecific antibody (hUH02UL01/2C11-F760) purified and prepared by the method of Reference Example 3-1. More specifically, 100 nmol/L of biotinylated mouse CTLA4; 0, 20, 100, or 500 nmol/L of hUH02UL01/2C11-F760; 50 μg/mL of AlphaScreen™ Streptavidin-coated Donor Beads (PerkinElmer); and mouse CD3-acceptor beads prepared by conjugating 50 μg/mL of mouse CD3 to AlphaScreen™ Unconjugated Acceptor Beads (PerkinElmer) were used. Under this condition, it was thought that biotinylated mouse CTLA4 bound to AlphaScreen™ Streptavidin-coated Donor Beads and mouse CD3-acceptor beads may be crosslinked by hUH02UL01/2C11-F760 as shown in FIG. 7-1, and chemiluminescence may be emitted. Alpha 384 (PerkinElmer) was used as the plate, and the measurements were taken using Envision. All experiments were performed three times.

Sequence of mouse CTLA4 (P09793 36-223): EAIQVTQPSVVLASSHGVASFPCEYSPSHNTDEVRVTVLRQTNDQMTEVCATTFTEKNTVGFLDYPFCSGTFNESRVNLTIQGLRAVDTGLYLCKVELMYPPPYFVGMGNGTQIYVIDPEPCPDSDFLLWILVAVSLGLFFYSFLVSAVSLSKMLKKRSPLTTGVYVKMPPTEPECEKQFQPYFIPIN

B1: hUH02UL01/2C11-F760: anti-mouse CTLA4/anti-mouse CD3 bispecific antibody, human IgG1 constant regions F760nN17/F760nP17 with reduced Fcγ receptor binding (antibody)
heavy 1: QVQLQESGPGLVKPSETLSLTCTVSGYSISSGYGWNWIRQPPGKGLEWIGFIYYEGSTYYNPSIKSRISITRDTSKNQFFLQVNSVTTEDTATYYCARQTGYFDYWGQGTLVTVSSASTKGPSVFPLAPSSKSTSGGTAALGCLVKDYFPEPVTVSWNSGALTSGVHTFPAVLQSSGLYSLSSVVTVPSSSLGTQTYICNVNHKPSNTKVDKKVEPKSCDKTHTCPPCPAPELRGGPKVFLFPPKPKDTLMISRTPEVTCVVVDVSHEDPEVKFNWYVDGVEVHNAKTKPREEQYASTYRVVSVLTVLHQDWLNGKEYKCKVSNKALPAPIEKTISKAKGQPREPQVYTLPPSRDELTKNQVSLTCLVKGFYPSDIAVEWESNGQPENNYKTTPPYLDSDGSFFLYSKLTVDKSRWQQGNVFSCSVMHEALHNHYTQESLSLSP
light 1: DIVMTQSPDSLAVSLGERATINCKSSQSLFNSNAKTNYLNWYQQKPGQPPKLLIYYASTRHTGVPDRFSGSGSGTDFTLTISSLQAEDVAVYYCQQWYDYPYTFGAGTKVEIKRTVAAPSVFIFPPSDEQLKSGTASVVCLLNNFYPREAKVQWKVDNALQSGNSQESVTEQDSKDSTYSLSSTLTLSKADYEKHKVYACEVTHQGLSSPVTKSFNRGEC
heavy 2: EVQLVESGGGLVQPGKSLKLSCEASGFTFSGYGMHWVRQAPGRGLESVAYITSSSINIKYADAVKGRFTVSRDNAKNLLFLQMNILKSEDTAMYYCARFDWDKNYWGQGTMVTVSSASTKGPSVFPLAPSSKSTSGGTAALGCLVKDYFPEPVTVSWNSGALTSGVHTFPAVLQSSGLYSLSSVVTVPSSSLGTQTYICNVNHKPSNTKVDKKVEPKSCDKTHTCPPCPAPELRGGPKVFLFPPKPKDTLMISRTPEVTCVVVDVSHEDPEVKFNWYVDGVEVHNAKTKPREEQYASTYRVVSVLTVLHQDWLNGKEYKCKVSNKALPAPIEKTISKAKGQPREPQVYTLPPSRKELTKNQVSLTCLVKGFYPSDIAVEWESNGQPENNYKTTPPYLDSDGSFFLYSKLTVDKSRWQQGNVFSCSVMHEALHNHYTQKSLSLSP
light 2: DIQMTQSPSSLPASLGDRVTINCQASQDISNYLNWYQQKPGKAPKLLIYYTNKLADGVPSRFSGSGSGRDSSFTISSLESEDIGSYYCQQYYNYPWTFGPGTKLEIKRTVAAPSVFIFPPSDEQLKSGTASVVCLLNNFYPREAKVQWKVDNALQSGNSQESVTEQDSKDSTYSLSSTLTLSKADYEKHKVYACEVTHQGLSSPVTKSFNRGEC
As to B1, in series [1] (100 μg/mouse i.t., ten days after transplantation), the “antitumor effects (tumor volume)” value was “remarkable antitumor effects”. Besides, the “antitumor effects in comparison to hUH02hUL01-mFa55” value in series [1] (i.t., hUH02UL01/2C11-F760 100 μg/mouse vs hUH02hUL01-mFa55 200 μg/mouse) is “stronger antitumor effects”. Moreover, the “antitumor effects, intratumoral versus intravenous administration” value in series [2] is “equivalent antitumor effects in both intratumoral and intravenous administration”. The ka with mouse CD3 worked out at 61600 M⁻¹ s⁻¹; with mouse CTLA4 it was 430000 M⁻¹ s⁻¹. The kd with mouse CD3 came out at 0.0712 s⁻¹; with mouse CTLA4, 0.00053 s⁻¹. In series [3], the “cytotoxic activity (cell proliferation inhibition rate)” value is listed as “cytotoxic activity in an antibody concentration-dependent manner”. In addition, in series [4], the “crosslinking between donor beads and acceptor beads” value is “crosslinks the donor bead and acceptor bead”. Besides, in series [5], the “crosslinking between beads (chemiluminescence)” value is “concentration-dependent crosslinking between beads was observed”.

The record behind these values is patent US11660340B2, “Combination therapy using T cell redirection antigen binding molecule against cell having immunosuppressing function” (CHUGAI SEIYAKU KABUSHIKI KAISHA, priority 2015, dated 2023).
